From patent US20250136702A1, “HUMAN LIFR ANTIGEN BINDING PROTEIN, PREPARATION METHOD THEREFOR, AND APPLICATION THEREOF” (NONA BIOSCIENCES (SUZHOU) CO., LTD., priority 2020, published 2025)

Columns and labels:
[1] = target: T1, human LIFR-ECD (Homo sapiens, UniProt P42702); assay: ELISA binding of antibodies to human LIFR-ECD at the protein level
T1 construct: The extracellular region (1-833 a.a.) of recombinant human LIFR protein; His tag; made in house; host or cells: HEK293 (transient transfection, purified from culture supernatant)
T1 sequence (P42702 45-833): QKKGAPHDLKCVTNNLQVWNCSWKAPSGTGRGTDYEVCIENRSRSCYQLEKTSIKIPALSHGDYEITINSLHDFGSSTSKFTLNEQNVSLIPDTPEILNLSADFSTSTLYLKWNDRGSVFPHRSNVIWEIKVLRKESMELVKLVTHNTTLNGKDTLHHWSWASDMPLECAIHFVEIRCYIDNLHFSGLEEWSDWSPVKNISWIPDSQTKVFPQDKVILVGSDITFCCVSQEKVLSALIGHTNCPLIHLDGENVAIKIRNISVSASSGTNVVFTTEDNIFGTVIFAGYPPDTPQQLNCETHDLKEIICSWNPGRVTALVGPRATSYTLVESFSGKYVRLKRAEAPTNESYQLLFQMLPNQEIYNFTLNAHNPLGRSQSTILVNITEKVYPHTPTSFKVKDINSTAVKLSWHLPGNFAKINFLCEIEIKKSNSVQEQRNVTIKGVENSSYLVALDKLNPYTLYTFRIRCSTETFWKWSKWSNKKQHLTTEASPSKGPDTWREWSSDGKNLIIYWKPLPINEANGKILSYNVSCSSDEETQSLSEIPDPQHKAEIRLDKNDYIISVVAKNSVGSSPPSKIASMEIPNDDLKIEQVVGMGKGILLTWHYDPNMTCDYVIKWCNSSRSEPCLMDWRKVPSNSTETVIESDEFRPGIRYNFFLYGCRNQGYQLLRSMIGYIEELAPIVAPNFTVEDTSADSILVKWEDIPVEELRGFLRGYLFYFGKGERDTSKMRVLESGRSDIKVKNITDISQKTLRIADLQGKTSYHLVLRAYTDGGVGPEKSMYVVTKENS
Experimental: (§1) The binding ability of the 15 antibodies prepared in examples 1-4 of the present invention to the LIFR-ECD protein was detected based on the ELISA assay method. The binding affinity of different antibodies was determined by comparing their dose response binding curves to LIFR-ECD protein. The specific experimental process is as follows: First, human LIFR-ECD, monkey LIFR-ECD and mouse LIFR-ECD proteins are diluted to a concentration of 1 μg/mL, added to a 96-well plate (100 μL per well) and placed at 4° C. overnight. The 96-well plates were washed three times with PBST solution and then placed at 37° C. for 1 h with the addition of 2% BSA in PBS solution. Antibody seris dilution is prepared and (100 nM, 10-fold-dilution), added to a 96-well plate and incubate at 37° C. for 1 h. After washing three times with PBST solution, add anti-human IgG Fc-HRP secondary antibody (for 5000× dilution) and incubate at 37° C. for 30-60 min. After washing three times with PBST solution, add TMB color development solution for 5-15 minutes, and then add termination solution to ternimate the color development.

[2] = target: T2, human LIFR/gp130 heterodimer expressed on the surface of 293T cells (Homo sapiens, UniProt P42702); assay: Flow cytometry blocking of huLIF binding to HEK293T-huLIFR/gp130 cells; conditions: compared with the negative control hIgG1
T2 construct: expressed in transfected cells; host or cells: HEK293T, lentiviral transduction (lenti-LIFR/gp130), puromycin selection, monoclonal line
T2 sequence (P42702 45-1097): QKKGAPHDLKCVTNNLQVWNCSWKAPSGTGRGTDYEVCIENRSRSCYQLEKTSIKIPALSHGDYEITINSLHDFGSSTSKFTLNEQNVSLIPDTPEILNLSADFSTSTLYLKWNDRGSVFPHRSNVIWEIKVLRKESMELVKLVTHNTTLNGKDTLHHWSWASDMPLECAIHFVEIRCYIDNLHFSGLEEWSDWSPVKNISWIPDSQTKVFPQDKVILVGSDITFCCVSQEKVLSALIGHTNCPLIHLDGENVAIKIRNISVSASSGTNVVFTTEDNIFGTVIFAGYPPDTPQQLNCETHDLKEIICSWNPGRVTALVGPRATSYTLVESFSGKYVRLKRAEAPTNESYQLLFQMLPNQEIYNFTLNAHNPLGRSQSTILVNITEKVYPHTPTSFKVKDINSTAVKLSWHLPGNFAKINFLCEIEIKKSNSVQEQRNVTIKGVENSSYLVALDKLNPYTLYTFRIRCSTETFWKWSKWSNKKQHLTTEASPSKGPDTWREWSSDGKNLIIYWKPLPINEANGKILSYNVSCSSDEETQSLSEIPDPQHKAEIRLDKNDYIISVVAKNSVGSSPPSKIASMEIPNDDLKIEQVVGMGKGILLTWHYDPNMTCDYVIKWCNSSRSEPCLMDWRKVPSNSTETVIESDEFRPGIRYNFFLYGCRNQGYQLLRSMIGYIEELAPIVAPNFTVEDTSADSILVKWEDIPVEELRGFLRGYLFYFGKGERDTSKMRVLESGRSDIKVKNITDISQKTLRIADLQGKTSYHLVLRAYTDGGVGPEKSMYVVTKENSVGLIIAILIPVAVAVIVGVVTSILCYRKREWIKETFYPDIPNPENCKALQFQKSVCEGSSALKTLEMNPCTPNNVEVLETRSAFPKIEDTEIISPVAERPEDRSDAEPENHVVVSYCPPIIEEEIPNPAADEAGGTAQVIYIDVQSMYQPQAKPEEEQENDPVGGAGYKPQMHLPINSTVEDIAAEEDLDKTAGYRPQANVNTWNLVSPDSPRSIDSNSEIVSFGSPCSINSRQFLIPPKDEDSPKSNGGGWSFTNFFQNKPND
Experimental: The ability of the 15 antibodies prepared in examples 1-4 of the present invention to block the binding of the huLIF protein to the human LIFR/gp130 heterodimer expressed on the surface of 293T cells was tested based on flow cytometry. The blocking ability was determined by comparing the dose response curves of different antibodies blocking the binding of huLIF protein to HEK293T-huLIFR/gp130 cells.
The specific experimental process is: (1) First determine the EC80 concentration of huLIF protein binding to HEK293T-huLIFR/gp130 cells. Label the huLIF protein to obtain the huLIF-biotin protein; (2) make serise diluton of test antibodies and incubate with HEK293T-huLIFR/gp130 cells and huLIF protein (final concentration is the value of EC80) at 4° C. After washing three times with PBS, incubate with APC-labeled Strepavidin secondary antibody for 30 minutes at 4° C. After washing three times with PBS, resuspend the cells with 100 μL FACS buffer; (3) Use flow cytometry to measure the four-channel median fluorescenceDegree value. Use the logarithm of the antibody concentration to base 10 as the abscissa, and plot the four-channel median fluorescence value on the ordinate to compare the IC50 and the peak value of the curve.

[3] = target: T1, human LIFR-ECD; assay: Antibody affinity test by Biolayerinterferometry (BLI); type: binding; conditions: antibody immobilized on AHC biosensor, antigen 100, 50, 25 nM
Experimental: The binding kinetics of the five antibodies PR300516, PR301127. PR301152, PR301168, PR301211, obtained according to the method of Examples 1-4 of the present invention, were examined by the Biolayerinterferometry (BLI) method (Fortebio octet RED 96e) for the human LIFR-ECD protein.
Dilute the antibody to be tested to a final concentration of 6 μg/mL, directly immobilize it on the AHC biosensor, perform kinetic measurement, dilute the antigen protein (Human LIF) with 0.02% PBST20 to 3 concentrations of 100 nM. 50 nM, 25 nM, respectively, and the sample was loaded for 70 s, the binding time was 300 s, the dissociation time was 300 s, and 10 mM of glycine-HCl (pH 2.0) was added and regenerated for 15 s. A simple one-to-one Languir binding model (Octet Red 96 data analysis software) was used to calculate the binding rate (kon) and the dissociation rate (kdis), the equilibrium dissociation constant (kD) is calculated as the ratio kdis/kon.

[4] = system: monkey LIFR-ECD; assay: ELISA binding of antibodies to monkey LIFR-ECD at the protein level
Experimental: as §1

binding ability to human LIFR-ECD protein (in words) [1]: have binding ability
block huLIF binding to HEK293T-huLIFR/gp130 (in words) [2]: significantly block
Kd [3]: 421 pM
binding ability to monkey LIFR-ECD protein (in words) [4]: have binding ability
B1: PR301211: fully human anti-LIFR IgG1 antibody; VH SEQ ID NO: 55, VL SEQ ID NO: 67, HC SEQ ID NO: 79, LC SEQ ID NO: 91 (antibody)
heavy: QVQLVESGGGVVQPGRSLRLSCAASGFTFSSYGMHWVRQAPGKGLEWVAVIWFDGSLKYYADSVKGRFAISRDNSKNTLYLQMNSLRAEDTAIFYCARGQLVQDLWGRGTLVTVSS[here human IgG1 constant region without letters]
light: DIQMTQSPSTLSASVGDRVTITCRASQSISSWLAWYQQKPGKAPNLLMYKASNLESGVPSRFSGSGSGTEFTLTITSLQPDDFASYYCQQYKSNPLTFGGGTKVEIKRTVAAPSVFIFPPSDEQLKSGTASVVCLLNNFYPREAKVQWKVDNALQSGNSQESVTEQDSKDSTYSLSSTLTLSKADYEKHKVYACEVTHQGLSSPVTKSFNRGEC
